Experimental data as given in the supplement of paper PMC4604168 (melanoma cell lines).
The list shows a part of the results. Repeats are few or missing, and single values can be far off.

Columns and labels:
Test in all cases: cell count relative to DMSO control; melanoma cells; higher = more viable cells
Details in all cases: library dose: low library concentration; 72 h
MZ2-MEL = test system: MZ2-MEL
MeWo = test system: MeWo
RPMI7951 = test system: RPMI7951
RVH-421 = test system: RVH-421
SkMel28 = test system: SkMel28
SkMel2 = test system: SkMel2
SkMel30 = test system: SkMel30
SkMel5 = test system: SkMel5
UACC257 = test system: UACC257
UACC62 = test system: UACC62
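Further: cell number obtained by counting DAPI-stained nuclei in high-throughput microscope images with image analysis software, screen run in 1,536-well plates.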

Row | SMILES | cell count (MZ2-MEL) [%] | cell count (MeWo) [%] | cell count (RPMI7951) [%] | cell count (RVH-421) [%] | cell count (SkMel28) [%] | cell count (SkMel2) [%] | cell count (SkMel30) [%] | cell count (SkMel5) [%] | cell count (UACC257) [%] | cell count (UACC62) [%]
1 | Nc1ccn([C@@H]2O[C@H](CO)[C@@H](O)C2(F)F)c(=O)n1 [gemcitabine] + COc1cc2c(Oc3ccc4[nH]c(C)cc4c3F)ncnc2cc1OCCCN1CCCC1 [cediranib] (first compound 0.0004 µM, partner dose 0.4 µM) | 99.8 | 98.1 | 100 | 91.9 | 106 | 102 | 94.8 | 87.9 | 79.3 | 86.3
2 | CC(=O)O[C@@]12CO[C@@H]1C[C@H](O)[C@@]1(C)C(=O)[C@H](O)C3=C(C)[C@@H](OC(=O)[C@H](O)[C@@H](NC(=O)OC(C)(C)C)c4ccccc4)C[C@@](O)([C@@H](OC(=O)c4ccccc4)[C@H]21)C3(C)C [Docetaxel] + NCC(=O)Nc1ccc(-n2nc(C(F)(F)F)cc2-c2ccc3c(ccc4ccccc43)c2)cc1 [OSU03012] (first compound 0.0001 µM, partner dose 1 µM) | 55 | 51.3 | 40.3 | 64.9 | 27.2 | 37.6 | 37.2 | 70.1 | 55.5 | 36.4
3 | Nc1ncn([C@H]2C[C@H](O)[C@@H](CO)O2)c(=O)n1 [decitabine] + COc1cc(N2CCC(N3CCN(C)CC3)CC2)ccc1Nc1ncc(Cl)c(Nc2ccccc2S(=O)(=O)C(C)C)n1 [NVP-TAE684] (first compound 0.1 µM, partner dose 0.08 µM) | 89.6 | 90.2 | 94.1 | 61.6 | 68.6 | 88.2 | 86.5 | 89.4 | 88.7 | 82.3
4 | Nc1ccn([C@@H]2O[C@H](CO)[C@@H](O)C2(F)F)c(=O)n1 [gemcitabine] + CN(NC(=O)CC(=O)NN(C)C(=S)c1ccccc1)C(=S)c1ccccc1 [STA4783] (first compound 0.0004 µM, partner dose 0.006 µM) | 91.6 | 86.7 | 100 | 106 | 89.9 | 97.9 | 104 | 100 | 89.5 | 104
5 | Nc1nc(F)nc2c1ncn2[C@@H]1O[C@H](CO)[C@@H](O)[C@@H]1O [fludarabine] + COc1cc(Nc2ncc(F)c(Nc3ccc4c(n3)NC(=O)C(C)(C)O4)n2)cc(OC)c1OC [Tamatinib] (first compound 0.2 µM, partner dose 0.4 µM) | 95.4 | 47.3 | 81.2 | 118 | 63.5 | 9.03 | 32 | 66.7 | 89.5 | 94.3
